{"source": "the RNAGym collection of RNA variant scans (doi:10.7554/elife.90254)", "parents": {"B1": {"name": "OR4K15 (parent)", "chain": "GUUAACGGUCAUAGGCCAUGGAAACUAGGAGCACCAUUUCGCUGCCAGUGAAGAAAUGAACAAAGAAAAUCUGGGCCAGGCAGGCAUCAAAAGAAAUAGUCUUGCGCUCAACCAGAAAGUCUGUAAUCAUUUUAAGGGUA"}}, "note": "The source gives no read counts; variants with many changes may rest on few reads."}
{"variants_of": "B1", "assay": "self-cleavage, relative activity (ratio to wild type); higher = more cleavage; in vitro, sequencing; the parent is a self-cleaving ribozyme"}
{"variant": "A52C A64C A92G", "self-cleavage": 0.16}
{"variant": "A52C A86C U102C", "self-cleavage": 1.63}
{"variant": "A52C U103C A114G", "self-cleavage": 0.07}
{"variant": "A52G A54G A62C U87C A96G U100C", "self-cleavage": 2.51}
{"variant": "A52G A54G A90U", "self-cleavage": 1.65}
{"variant": "A52G A54U U70A", "self-cleavage": 0.55}
{"variant": "A52G A55G A92G", "self-cleavage": 0.96}
{"variant": "A52G A55G G106U", "self-cleavage": 0.05}
{"variant": "A52G A55G U87C A96G U120C U122C", "self-cleavage": 0.53}
{"variant": "A52G A55G U102A", "self-cleavage": 1.08}
{"variant": "A52G A55G U127A", "self-cleavage": 1.71}
{"variant": "A52G A55U A69G A89U A114G A126G", "self-cleavage": 0.21}
{"variant": "A52G A56G A59G A92G U120G U131C", "self-cleavage": 0.89}
{"variant": "A52G A56G A82G C121A", "self-cleavage": 1.07}
{"variant": "A52G A56G A96G U103A G104A A111G", "self-cleavage": 0.02}
{"variant": "A52G A59G A68G", "self-cleavage": 1.15}
{"variant": "A52G A59G A69G U122A U139C", "self-cleavage": 1.15}
{"variant": "A52G A59G A90G", "self-cleavage": 0.63}
{"variant": "A52G A59G C85U A98G", "self-cleavage": 0.45}
{"variant": "A52G A59G U120C", "self-cleavage": 1.03}
{"variant": "A52G A59G U122A", "self-cleavage": 1.53}
{"variant": "A52G A59U A64G U72A A110G", "self-cleavage": 0.02}
{"variant": "A52G A59U A117G G119A U124A", "self-cleavage": 1.42}
{"variant": "A52G A59U U102A", "self-cleavage": 0.72}
{"variant": "A52G A59U U108A A116U", "self-cleavage": 0.03}
{"variant": "A52G A60G A118G", "self-cleavage": 0.57}
{"variant": "A52G A60G U122G", "self-cleavage": 0.5}
{"variant": "A52G A60U A68G", "self-cleavage": 0.69}
{"variant": "A52G A62G A96U A129G", "self-cleavage": 1.1}
{"variant": "A52G A62G A110U", "self-cleavage": 1.45}
{"variant": "A52G A62U A90C U108A A135G", "self-cleavage": 0}
{"variant": "A52G A63G C77U A89C", "self-cleavage": 2.09}
{"variant": "A52G A63G U102A", "self-cleavage": 1.36}
{"variant": "A52G A63G U127C", "self-cleavage": 1.31}
{"variant": "A52G A63G U132A", "self-cleavage": 0.96}
{"variant": "A52G A63U A95G", "self-cleavage": 2.33}
{"variant": "A52G A64G G93A U127C", "self-cleavage": 0.67}
{"variant": "A52G A64G U97A", "self-cleavage": 0.94}
{"variant": "A52G A64U A67G U72A A82U C128A", "self-cleavage": 0.15}
{"variant": "A52G A67G A86U A110G", "self-cleavage": 0.15}
{"variant": "A52G A67G A89G U122A U127C", "self-cleavage": 1.85}
{"variant": "A52G A67G A114G", "self-cleavage": 0.89}
{"variant": "A52G A67G U87C A96C U139A", "self-cleavage": 0.93}
{"variant": "A52G A67G U108C A111G", "self-cleavage": 0.01}
{"variant": "A52G A67G U122C", "self-cleavage": 0.74}
{"variant": "A52G A67U A68G A82G", "self-cleavage": 0.92}
{"variant": "A52G A67U U87C", "self-cleavage": 1.65}
{"variant": "A52G A69U A89G A116U A118G U127C", "self-cleavage": 0.01}
{"variant": "A52G A69U C76A A92G A110G U131C", "self-cleavage": 0.04}
{"variant": "A52G A78G C101U U108C", "self-cleavage": 0.04}
{"variant": "A52G A78G U131C", "self-cleavage": 0.38}
{"variant": "A52G A78U A110G", "self-cleavage": 0.09}
{"variant": "A52G A78U U102C G123A", "self-cleavage": 1.4}
{"variant": "A52G A82G A111G A117G", "self-cleavage": 0.05}
{"variant": "A52G A82U A89G A118G", "self-cleavage": 0.11}
{"variant": "A52G A82U A90G", "self-cleavage": 0.19}
{"variant": "A52G A86G U108C", "self-cleavage": 0}
{"variant": "A52G A89U A94U", "self-cleavage": 1.66}
{"variant": "A52G A90G U127A", "self-cleavage": 0.56}
{"variant": "A52G A91G A92G", "self-cleavage": 1.97}
{"variant": "A52G A94G A96U A111G A118U A135G", "self-cleavage": 0}
{"variant": "A52G A95G A125U", "self-cleavage": 1.65}
{"variant": "A52G A95G G106A", "self-cleavage": 0.02}
{"variant": "A52G A95G U102C A125G", "self-cleavage": 1.67}
{"variant": "A52G A96G C113U", "self-cleavage": 0.04}
{"variant": "A52G A114G A135G", "self-cleavage": 0.34}
{"variant": "A52G A114G U131C", "self-cleavage": 0.4}
{"variant": "A52G A117G U130C", "self-cleavage": 0.62}
{"variant": "A52G A126G U130C", "self-cleavage": 1.62}
{"variant": "A52G C71A A78U", "self-cleavage": 0.19}
{"variant": "A52G C77U A90G A96G", "self-cleavage": 2.37}
{"variant": "A52G C113U U132C", "self-cleavage": 0}
{"variant": "A52G G53U C105U", "self-cleavage": 0.22}
{"variant": "A52G G74U A95G U131C", "self-cleavage": 0.04}
{"variant": "A52G G79A A140U", "self-cleavage": 0.24}
{"variant": "A52G G80A U100C A129G", "self-cleavage": 0.43}
{"variant": "A52G G123A U139A", "self-cleavage": 1.23}
{"variant": "A52G U57A C76U", "self-cleavage": 0.05}
{"variant": "A52G U57C A118G", "self-cleavage": 0.76}
{"variant": "A52G U57C U70C", "self-cleavage": 0.25}
{"variant": "A52G U57C U108C U127C", "self-cleavage": 0.01}
{"variant": "A52G U57G A66G", "self-cleavage": 1.35}
{"variant": "A52G U70A U72A A96G", "self-cleavage": 0.28}
